Results taken from article PMC4336329 (PLoS ONE, 2015).
Out of some 310,000 compounds screened, about 2,200 (0.71%) showed an effect of 50% or more. Effects have a minus sign here. The list shows a part of the results.

Each compound was assayed against human ether-à-go-go-related gene (hERG) potassium channel (human, UniProt Q12809) (assay: primary screen, population patch clamp on CHO cells stably expressing hERG).
human ether-à-go-go-related gene (hERG) potassium channel, sequence (Q12809 whole entry, looked up): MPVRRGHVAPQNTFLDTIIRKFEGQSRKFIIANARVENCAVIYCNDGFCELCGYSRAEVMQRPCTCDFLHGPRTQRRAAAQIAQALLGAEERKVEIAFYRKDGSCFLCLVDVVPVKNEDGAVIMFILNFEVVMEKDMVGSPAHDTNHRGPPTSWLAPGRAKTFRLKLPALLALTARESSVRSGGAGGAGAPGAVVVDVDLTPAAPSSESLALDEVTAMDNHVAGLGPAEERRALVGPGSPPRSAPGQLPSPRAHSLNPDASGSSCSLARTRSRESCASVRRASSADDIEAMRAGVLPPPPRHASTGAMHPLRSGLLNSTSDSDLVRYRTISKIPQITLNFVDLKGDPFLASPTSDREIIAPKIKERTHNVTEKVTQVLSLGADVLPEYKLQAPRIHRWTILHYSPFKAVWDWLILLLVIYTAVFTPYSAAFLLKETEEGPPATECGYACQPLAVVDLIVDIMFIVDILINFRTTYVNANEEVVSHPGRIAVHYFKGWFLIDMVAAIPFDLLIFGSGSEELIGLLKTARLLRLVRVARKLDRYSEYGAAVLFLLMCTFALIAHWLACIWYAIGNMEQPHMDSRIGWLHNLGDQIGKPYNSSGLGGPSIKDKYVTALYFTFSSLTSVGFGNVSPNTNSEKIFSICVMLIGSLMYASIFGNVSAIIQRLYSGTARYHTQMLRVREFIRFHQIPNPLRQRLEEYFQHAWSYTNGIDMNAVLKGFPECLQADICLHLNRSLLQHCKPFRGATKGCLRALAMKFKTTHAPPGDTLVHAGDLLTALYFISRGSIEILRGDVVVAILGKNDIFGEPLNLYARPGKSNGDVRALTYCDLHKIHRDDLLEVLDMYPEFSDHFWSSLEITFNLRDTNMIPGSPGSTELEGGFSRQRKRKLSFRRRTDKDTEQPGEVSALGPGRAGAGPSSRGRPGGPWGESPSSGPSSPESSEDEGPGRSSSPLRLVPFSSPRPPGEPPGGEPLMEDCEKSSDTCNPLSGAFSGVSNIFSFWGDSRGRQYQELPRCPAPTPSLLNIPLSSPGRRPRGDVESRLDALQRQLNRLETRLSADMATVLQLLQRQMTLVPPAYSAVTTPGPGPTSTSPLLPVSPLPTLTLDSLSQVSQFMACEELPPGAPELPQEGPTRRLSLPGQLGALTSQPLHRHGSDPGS

Row | Compound | hERG current change (%, negative = inhibition) at 1uM [%]
1 | CCOC(=O)c1cccc(NC(=O)CCn2cccc2)c1 | 2.9
2 | Cc1c(C(=O)N2CCCC2)c(S(=O)(=O)Nc2cccc(Br)c2)c(C)n1C | 6.78
3 | CCOCCCNC(=O)c1c[nH]c2cc(C)ccc2c1=O | -0.128
4 | CCNC(=S)Nc1cccc(S(=O)(=O)NC2=NCCC2)c1 | 7.43
5 | Cl.OC(c1ccc(Cl)cc1)c1nccc2ccccc12 (centres unmarked) | 8.91
6 | COc1ccc(C(=O)NCC(=O)OCc2ccc([N+](=O)[O-])cc2)cc1 | -1.55
7 | COCCn1c(C)cc(/C=N/NC(=O)c2cc3ccccc3cc2O)c1C | 21.4
8 | Cc1ccc(NC(=O)c2oc3ccccc3c2NC(=O)C2CCCO2)cc1C (centres unmarked) | -7.6
9 | N#Cc1ccc(OCC(=O)OCC(=O)NCCC2=CCCCC2)cc1 | 0.236
10 | CCOc1ccc(S(=O)(=O)n2nc(C)cc2C)c2ccccc12 | 9.91
11 | CCc1cccc(OCC(=O)Nc2ccc(S(=O)(=O)Nc3onc(C)c3C)cc2)c1 | 9.89
12 | COc1cccc(/C=N/n2c(=O)[nH]c3ccccc32)c1OC | 16.2
13 | COc1ccc(CN2CC34C=CC(O3)C(C(=O)O)C4C2=O)cc1 (centres unmarked) | 5.7
14 | COC(=O)[C@]1(C)N[C@H](c2ccc(SC3CCCCC3)c(OC)c2)[C@@H]2C(=O)N(C)C(=O)[C@@H]21.O=C(O)C(F)(F)F | 9.14
15 | CC(=O)N1CCC(N(CCN2CCOCC2)C(=S)Nc2cccc(C)c2C)CC1 | 15.1
16 | Cc1nnc(NC(=O)CSc2nnc(CNC(=O)c3ccc(S(=O)(=O)N(C)C)cc3)o2)s1 | 18.1
17 | NC(=O)CSc1nnc(-c2ccco2)n1N | 10.1
18 | COc1cc(OC)c(OC)cc1/C=N/Nc1ncnc2c1[nH]c1ccc(C)cc12 | 11
19 | O=C(Nc1ccc(C(=O)O)cc1)Nc1cccc([N+](=O)[O-])c1 | 17.4
20 | Cc1ccccc1C(=O)Nc1c2c(nc3ccccc13)CCCC2 | 6.49
21 | Cc1nc(COc2ccc(C(=O)Nc3ccccc3N3CCOCC3)cc2)cs1 | -12.1

Row | Compound | hERG current change (%, negative = inhibition) at 1uM [%]
22 | O=C(O)c1cc(N/N=C/c2ccc(N3CCOCC3)s2)ccc1Cl | 6.42
23 | COc1cccc(C(=O)NCC(=O)N/N=C/c2cccs2)c1 | 10.7
24 | COc1ccc(-n2nc3c(c2NC(=O)C(C)Oc2ccccc2)CS(=O)C3)cc1 (centres unmarked) | 13
25 | [O-]/[N+](=C\c1ccncc1)c1ccc(Br)cc1 | 11.9
26 | N#Cc1ccc(-c2csc(NC(=O)c3cc(-c4cccs4)nc4ccccc34)n2)cc1 | 5.22
27 | COC(=O)c1c(NC(=O)CN2CCN(S(=O)(=O)c3ccccc3[N+](=O)[O-])CC2)sc2c1CCC(C)C2 (centres unmarked) | 9.66
28 | Cc1ccc(NC(=O)c2cc(S(=O)(=O)N3CCc4ccccc43)cn2C)cc1C | -1.49
29 | CCOC(=O)C1=NN(C(=O)c2ccccc2)C(O)(c2ccc(C)cc2)C1 (centres unmarked) | -1.77
30 | Cc1ccc(S(=O)(=O)/C=C/c2ccccc2)cc1 | 21.1
31 | COc1cccc(NC(=O)c2ccc3c(c2)N(CC(=O)N2CCCCC2)C(=O)C(C)(C)O3)c1 | 4.38
32 | CCOc1ccc(NC(=O)CCCNC(=O)Cn2cnc3sc(C)c(C)c3c2=O)cc1 | 19.5
33 | Fc1ccc(-c2n[nH]c(=S)n2/N=C/c2c[nH]c3ccccc23)cc1 | -5.95
34 | Nc1nc(SCC(=O)Nc2ccc(Br)cc2F)n[nH]1 | 9.94
35 | NC(=O)c1c(NC(=O)CSc2nnc(-c3ccco3)n2-c2ccccc2)sc2c1CCC2 | 9.79
36 | Cc1cc(/C=N/NC(=O)C(O)(c2ccccc2)c2ccccc2)c(C)n1-c1cccc(C(=O)O)c1 | 11.8
37 | O=C(Nc1ccc(S(=O)(=O)N2CCOCC2)cc1)c1ccco1 | -18.9
38 | COc1cc(SC)ccc1C(=O)Nc1ccc2c(c1)CCN2S(C)(=O)=O | 9.24
39 | CC(C)c1ccc(N2C=Nc3ccc(C(C)C)cc3C2)cc1 | 6.82
40 | Cc1onc(-c2ccccc2)c1-c1nnc(CN2CCN(S(=O)(=O)c3ccccc3F)CC2)o1 | -6.2
41 | CCC(C)(C)C1CCc2[nH]nc(C(=O)NCc3ccc(OC)cc3)c2C1 (centres unmarked) | 14.6
42 | COc1cccc(/C=N/N2C(=O)NC3(CCCCC3)C2=O)c1O | 6.48

Row | Compound | hERG current change (%, negative = inhibition) at 1uM [%]
43 | COc1cccc(CNCc2ccc(OC)c3ccccc23)c1OC.O=C(O)C(=O)O | 17.4
44 | CCOC(=O)Cc1csc(NC(=O)c2cccc([N+](=O)[O-])c2)n1 | 10.2
45 | N/C(=N\c1nc2c(c(=O)[nH]1)CCC2)Nc1cccc2ccccc12 | -2.55
46 | O=C(C1CCC(=O)N(C2CCCC2)C1)N1CCN(Cc2cccc(Cl)c2)CC1 (centres unmarked) | 8.65
47 | Cc1ccc(Cn2nc(C)c(NC(=O)CCCn3nc(C)c([N+](=O)[O-])c3C)c2C)cc1 | 9.56
48 | O=C(N/N=C/c1sc(=O)n(Cc2ccc(Br)cc2)c1Cl)c1ccco1 | 11
49 | COc1ccccc1CNC(=O)CCN1C(=O)COc2ccccc21 | 10.4
50 | COc1ccc(NC(=O)C(C)Sc2nnc(C3CC3)n2C2CC2)cc1 (centres unmarked) | 3.89
51 | Cc1ccc(S(=O)(=O)N(C)C)cc1NC(=O)COc1cccc(-n2cnnn2)c1 | 4.34
52 | O=C(CN1C(=O)COc2ccc(S(=O)(=O)N3CCCCCC3)cc21)NCc1ccc(F)cc1 | 6.22
53 | Cc1ccc(N(CC(=O)NCCc2ccccc2)S(=O)(=O)c2c(C)noc2C)cc1 | -2.67
54 | CCN(CC)S(=O)(=O)c1ccc(C(=O)NC(=S)N(CCO)Cc2ccccc2)cc1 | 13.1
55 | CCCc1[nH]nc2c1C(c1ccc(OCCN3CCOCC3)c(OC)c1)C(C#N)=C(N)O2 (centres unmarked) | 4.01
56 | CC(=O)c1c(C)c(C)c2n1CCn1c(C)ccc1-2 | 14.4
57 | COc1ccc(-c2nnc(SCC(=O)NC(=O)Cc3ccccc3)n2C)cc1 | 3.32
58 | COc1cc(CN2CCNC(=O)C2CC(=O)NCCC2=CCCCC2)cc(OC)c1 (centres unmarked) | 12.8
59 | COc1cc([N+](=O)[O-])ccc1NC(=O)Nc1cnccn1 | -0.389
60 | O=C1COc2ccc(-c3csc(=Nc4ccc(OC(F)F)cc4)n3CC3CCCO3)cc2N1 (centres unmarked) | -0.709
61 | COC(=O)c1cc(C(=O)OCC(=O)Nc2ccccc2OC(F)F)cc([N+](=O)[O-])c1 | 3.43
62 | COc1ccc(-n2cnc3c(cnn3CCC#N)c2=N)cc1 | -3.21
63 | Cc1cccc(C(=O)NCCN2CCN(c3ccccc3)CC2)c1.Cl | -12.7

Row | Compound | hERG current change (%, negative = inhibition) at 1uM [%]
64 | O=C(N/N=C/c1ccc([N+](=O)[O-])cc1)c1ccc(NS(=O)(=O)c2cccs2)cc1 | 4.81
65 | O=[N+]([O-])c1cc(C(F)(F)F)cc([N+](=O)[O-])c1NCCNC(=S)Nc1cccc(F)c1 | 6.4
66 | COc1ccccc1/C=C(/C(=O)OCC(=O)Nc1ccccc1C(C)C)c1ccccc1 | 10.7
67 | CCC/C(=N\NC(=O)c1ccc(CSc2nncn2C)cc1)c1ccccc1 | 7.72
68 | CC(=O)N(C)C(c1ccc(N(C)C)cc1)c1nnnn1-c1c(C)cccc1C (centres unmarked) | 4.13
69 | COc1cc(CCC(=O)N2CCN(c3cccc(C)c3C)CC2)cc(OC)c1OC | 12.1
70 | Cc1cccc(NC(=O)Nc2ccc(Cl)c(Cl)c2)n1 | -0.04
71 | C#CCOCCOCCOCCNc1nc(N2CCN(C(=O)C(Cc3ccc(O)cc3)n3cc(C(N)CC(C)C)nn3)CC2)nc(N2CCN(C(=O)C(Cc3cc4ccccc4[nH]3)n3cc(C(N)Cc4ccc(O)cc4)nn3)CC2)n1.Cl (centres unmarked) | 2.94
72 | COc1ccc(Nc2nc(N)nc(SCc3nnc(C)s3)n2)cc1 | 8.54
73 | Cc1cc(N2CCOCC2)nc2ccc(NC(=S)NC(C)C)cc12 | 2.36
74 | COc1ccc(NC(=O)c2ccc3c(c2)OCO3)cc1Cl | 9.69
75 | CN(CC(=O)Nc1ccccc1Sc1ccccc1)C1CCCCC1 | 8.53
76 | CCOCCCNC(=O)CCSc1ccc(C)cc1 | 0.816
77 | COc1ccc(CN(C(=O)c2cc(=O)c3ccccc3o2)C2CCS(=O)(=O)C2)cc1 (centres unmarked) | 3.8
78 | O=C(/C=C/c1ccc(F)cc1)Nc1ccc(S(=O)(=O)Nc2ncccn2)cc1 | 12.9
79 | O=C(N/N=C/c1cccnc1)c1ccccc1 | 14.5
80 | CC1(C)C(=O)Nc2ccccc2N1C(=O)CN1C(=O)C(=O)N(C2CCCC2)C1=O | 0.681
81 | CNc1ccccc(-c2ccc3ccccc3n2)c1=O | 3.23
82 | N#C/C(=C/c1cn(-c2ccccc2)nc1-c1cccc(S(=O)(=O)N2CCCC2)c1)C(=O)NCc1ccco1 | 9.99
83 | COc1ccc(/C=C/C(=O)OCC(=O)Nc2ccc(N3CCOCC3)cc2)cc1OC | 11.7
